Experimental data: PubChem BioAssay AID1963427 (Molecular Pharmacology Branch, DTP, NCI, 2024)
A number of entries come with more than one value. The other results are left out here. There may be further records. Values given together are repeats in other runs, samples, wells, individuals or studies. Additions like (4×) stand for listed records that agree. Each block holds one compound with its values, some of them ahead of it.

Tested on: 317291-083-R-J1-PDC complex spheroid growth
Experiment: Anticancer human tumor 317291-083-R-J1-PDC patient-derived soft tissue sarcoma cell line growth inhibition [Asc]
Details: for viability, T/C: stronger effect = lower value; for IC50: compound alone
Description: Multicellular complex tumor spheroid response to apoptosis pathway targeting inhibitors Alrizomadlin, Pelcitoclax, and Dasminapant in combination with a variety of drugs and investigational agents in selected tumor cell lines
The MDM2 inhibitor alrizomadlin, the Bcl-2/Bcl-xL inhibitor pelcitoclax, and the IAPs inhibitor dasminapant were evaluated both individually and in combination with standard of care and investigational anticancer small molecules within a complex spheroid model of solid tumors. . Complex spheroids include a stromal component modeled by human endothelial cells (HUVEC) and fibroblasts modeled by human mesenchymal stem cells (MSCs). The concentration ranges selected for each drug and investigational agent were based upon clinically achievable concentrations if the clinical Cmax of the agent was known.
Compounds. The drugs and investigational agents: alrizomadlin (APG-115; NSC831270), pelcitoclax (APG-1252; NSC835773), dasminapant (APG-1387;NSC834197), TAK-243 (NSC785004), copanlisib (NSC809693), olaparib (NSC753686), talazoparib (NSC767125), cobimetinib (NSC 768068), eltanexor (KPT-8602, NSC 794443), abemaciclib (NSC 768073), sotorasib (NSC818433), adagrasib (NSC 831453), MRTX-1133 (NSC 836407), Iadademestat (ORY1001, NSC 806812), and RMC-4630 (NSC839698), were obtained from the NCI Developmental Therapeutics Program Chemical Repository. The FDA-approved anticancer drug set is available from the Developmental Therapeutics Program at https://dtp.cancer.gov/organization/dscb/obtaining/available plates.htm. […] The stock solutions were prepared in dimethyl sulfoxide (DMSO, Sigma-Aldrich, St. Louis, MO, cat. D2650) at 800-fold the tested concentration and stored at -70 degrees C prior to their use. All drugs and investigational agents were tested over a range starting from a high concentration at or near the clinical Cmax and decreasing in half-log increments. If the clinical Cmax for an agent had not been determined, the highest concentration tested was 10 microM.
The patient-derived cancer (PDC) cell lines include five colon adenocarcinomas: 186277-243-T-J2-PDC, 616215-338-R-J1-PDC, 439559-082-T-J2-PDC, 463943-066-T-J2-PDC, and 519858-162-T-J1-PDC; three pancreatic carcinomas: 323965-272-R-J2-PDC, 521955-158-R6-J3-PDC, and 521955-158-R2-J5-PDC; two uterine sarcomas: 327498-152-R-J2-PDC and 993429-296-R-J1-PDC; two rhabdomyosarcomas: 755483-174-R-J1-PDC and 772245-204-R-J1-PDC; two soft tissue sarcomas: 126254-015-R-J1-PDC and 494315-158-R-J1-PDC; two malignant fibrous histiocytomas: 317291-083-R-J1-PDC and 596521-263-R-J1-PDC; two breast carcinomas: 171881-019-R-J1-PDC and 885512-296-R-J2-PDC; and one ovarian carcinoma: 6556581-035-R-J-PDC were obtained from the NCI PDMR, (https://pdmr.cancer.gov). The established cell lines HSSY-2 synovial sarcoma (RRID:CVCL 8719), SYO-1 synovial sarcoma (RRID:CVCL_7146), MPNST malignant peripheral neural sheath tumor were obtained from the Sloan Kettering Institute. The following established cell lines were purchased from the American Type Culture Collection (ATCC, Manassas, VA), Sor the received from the NCI repository:, PANC-1 pancreatic carcinoma (CRL-1469, RRID:CVCL_0480), OVCAR-5 ovarian carcinoma (RRID:CVCL_1628), OVCAR-8 ovarian carcinoma (RRID:CVCL_1629), , MCF-7 breast carcinoma (CRL-12584, RRID:CVCL_0031), MDA-MB-231 breast carcinoma (CRL-12532, RRID:CVCL_0062), NCI-H1876 small cell lung carcinoma (CRL-5902, RRID:CVCL_1503), NCI-H510A small cell lung carcinoma (HTB-184, RRID:CVCL_1565), NCI-H1417 (CRL-5869, RRID:CVCL_1469), and NCI-H196 small cell lung carcinoma (CRL-5823, RRID:CVCL_1509). Dr. Peter Houghton (Greehey Children's Cancer Research Institute, University of Texas Health Science Center, San Antonio, TX) provided Rh-18 rhabdomyosarcoma (RRID:CVCL_1659). Pooled donor human umbilical vein endothelial cells (HUVEC, Lonza, cat. CC-2519) and human mesenchymal stem cells (hMSC, Lonza, cat. PT-2501) were purchased from Lonza (Walkersville, MD).
Cell Culture. […]
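Also: compound exposure lasted seven days after spheroids formed for three days.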
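For viability, T/C in this document: 100% = DMSO vehicle control wells.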

Structure (SMILES): CCN1C(C(=O)NC23CCC(C(=O)O)(CC2)CC3)C(c2cccc(Cl)c2F)C2(C(=O)Nc3cc(Cl)ccc32)C12CCCCC2 (stereo not drawn)
viability, T/C (compound alone 0.00949 µM): 99.5, 85.7, 127, 100, 93.4, 101, 112, 107, 84.3%
viability, T/C (compound alone 0.03 µM): 113, 91.4, 96.9, 95.2, 99.8, 99.3, 109, 112, 86.8%
viability, T/C (compound alone 0.949 µM): 78.5, 88.9, 106, 102 (2×), 92, 96.2, 105, 94.8%

Structure (SMILES): Cc1c(S(C)(=O)=O)c(-c2cc(F)cc(N3CCN(c4ccc(NS(=O)(=O)c5ccc(NC(CCN6CCC(C(=O)OCCCP(=O)(O)O)CC6)CSc6ccccc6)c(S(=O)(=O)C(F)(F)F)c5)cc4)CC3)c2)c(-c2ccc(Cl)cc2)n1C(C)C (stereo not drawn)
viability, T/C (compound alone 0.1 µM): 74.3, 92, 104 (2×), 99.4, 90.9, 94.3%
viability, T/C (compound alone 1 µM): 91.8, 73.1, 103, 84.3, 87.4, 78.9, 79%
viability, T/C (compound alone 10 µM): 80.1, 90.1, 105, 112, 86.8, 90.3, 84.4%

IC50: 20.1 nM, 27 nM, < 0.949 nM
Structure (SMILES): NC(=O)C(=Cn1cnc(-c2cc(C(F)(F)F)cc(C(F)(F)F)c2)n1)c1cncnc1

Structure (SMILES): CNC(C)C(=O)NC1CN(S(=O)(=O)c2cccc(S(=O)(=O)N3CCC4CCC(C(=O)NC(c5ccccc5)c5ccccc5)N4C(=O)C(NC(=O)C(C)NC)C3)c2)CCC2CCC(C(=O)NC(c3ccccc3)c3ccccc3)N2C1=O (stereo not drawn)
viability, T/C (compound alone 0.00316 µM): 83.6, 93.9, 5.43, 72.6, 93.5, 89, 74.9, 89.1, 72%
viability, T/C (compound alone 0.01 µM): 88.7, 84.5, 41.1, 78.2, 108, 92.3, 78.4, 74, 85%
viability, T/C (compound alone 0.1 µM): 58.4, 77.2, 46.3, 49.7, 87, 62.4, 60.3, 71.7, 50.9%
viability, T/C (compound alone 0.316 µM): 56.6, 43.2, 60, 72, 48.7, 55.9, 48.1, 47.3%
viability, T/C (compound alone 1 µM): 43.4, 35.9, 39.2, 40.9, 63, 41.3, 40.3, 48.7, 31.6%
IC50 (drug combinations, run of 11/15/2022): < 3.16 nM, 99.8 nM, > 1 µM, 271 nM, 464 nM, 687 nM, 154 nM
